# Several values for one entry are separate records, joined by “and”; a condition that tells them apart may be missing. Equal entries are not always repeated. This list was built around the results that the source calls inconclusive (neither active nor inactive); the mix of calls is not that of the screen. Potencies of inconclusive entries are doubtful fits and often do not repeat. Activity calls are given as the source filed them. The call rests on the fitted dose curve; in most records, active means well fitted cell-killing curve with a large enough effect; inconclusive means small, poorly fitted or top-dose-only effect, or effect the other way; inactive means no such curve, though single readings can be large or run the other way.
# Assay: Viability qHTS for spleen associated tyrosine kinase inhibitor (SYKi) naive MV4-11 cells (AID 1963823); further: nearly all actives have a fitted effect of over 40% in size
# Conditions: MV4-11 AML viability, CellTiter-Glo luminescence, 72 h; series mostly up to 45 µM
# Summary of the method: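 SYK inhibitor-naive MV4-11 cells, 500 per well, exposed to compounds for 72 hr at 37 C, 5% CO2. Viability read as CellTiter-Glo luminescence after 10 min at room temperature.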
# Potency means the concentration at half of the fitted maximal effect; tags describe the fitted curve by direction and shape.
row,SMILES,Potency
1,NNc1nnc(NN)c2ccccc12,inactive
2,Cc1[nH]c2ccccc2c1CCNCc1ccc(/C=C/C(=O)NO)cc1,"inconclusive: 36.6 nM [cytotoxic, full curve] and active: 29.5 nM"
3,Cc1[nH]cnc1CN1CCc2c(c3ccccc3n2C)C1=O,"inconclusive: 0.0075 µM [cytotoxic, full curve]"
4,CC1(C)S[C@@H]2[C@H](NC(=O)C(C(=O)O)c3ccccc3)C(=O)N2[C@H]1C(=O)O (stereo not given in full),inactive
5,NS(=O)(=O)c1ccc(Cl)c(S(N)(=O)=O)c1,"inconclusive: 33.5 µM [rising, single point]"
6,NC(=NCCCCCCN=C(N)/N=C(\N)Nc1ccc(Cl)cc1)/N=C(\N)Nc1ccc(Cl)cc1,active: 5.31 µM and active: 1.84 µM
7,CC(C)c1c(-c2ccccc2)nc2c(C#N)c[nH]n2c1=O,"inconclusive: 33.2 µM [cytotoxic, single point]"
8,CC(CC1c2ccccc2CCc2ccccc21)CN(C)C (stereo not given),"inconclusive: 18.8 µM [cytotoxic, partial curve]"
9,N#C[C@@H]1C[C@@H]2C[C@@H]2N1C(=O)[C@@H](N)C12CC3CC(CC(O)(C3)C1)C2,"inconclusive: 16.6 µM [cytotoxic, partial curve]"
10,C=CCc1ccccc1OCC(O)CNC(C)C (stereo not given),inactive
11,Cn1ncc(Cl)c1-c1cc(C(=O)N[C@H](CN)Cc2cccc(F)c2)sc1Cl,"inconclusive: 9.2 µM [cytotoxic, partial curve] and inconclusive: 2.09 µM [cytotoxic, full curve]"
12,O=C1S/C(=C\c2ccc(OCc3cccc(B(O)O)c3)cc2)C(=O)N1Cc1ccc(F)cc1,"inconclusive: 20.9 µM [cytotoxic, partial curve]"
13,CONC(=O)Nc1ccc(-c2sc3c(c2CN(C)C)c(=O)n(-c2ccc(OC)nn2)c(=O)n3Cc2c(F)cccc2F)cc1,"inconclusive: 23.5 µM [cytotoxic, single point]"
14,Cn1ncc(NC(=O)c2nc(-c3c(F)cccc3F)sc2N)c1N1CC[C@@H](N)[C@H](F)CC1,active: 0.235 µM
15,COc1ccccc1OC(=O)Oc1ccccc1OC,"inconclusive: 18.8 µM [cytotoxic, single point]"
16,CC(C)Oc1ccc(-c2nn([C@@H](C)c3oc4ccc(F)cc4c(=O)c3-c3cccc(F)c3)c3ncnc(N)c23)cc1F,active: 14.8 µM
17,Nc1ccc(S(=O)(=O)Nc2ccccn2)cc1,inactive
18,C=CCNc1nc(NCC=C)nc(N2CCN(C(c3ccc(F)cc3)c3ccc(F)cc3)CC2)n1,"inconclusive: 0.0422 µM [cytotoxic, full curve]"
19,CC(O)(P(=O)(O)O)P(=O)(O)O,inactive
20,O=C(Nc1ccc([N+](=O)[O-])cc1)Nc1ccc([N+](=O)[O-])cc1,"inconclusive: 18.8 µM [cytotoxic, partial curve, poor fit]"

row,SMILES,Potency
1,COCCOc1cnc2ccn([C@H](C)c3nnc4c(F)cc(-c5cnn(C)c5)cn34)c(=O)c2c1,inactive
2,COc1ccc(/C(C)=C/C(=O)O)c(OC)c1,inactive
3,CC1=C(c2ccc(O)cc2)[C@H](c2ccc(OCCN3CCCCC3)cc2)Oc2cc(O)ccc21,active: 8.33 µM
4,Cc1ccc2c(n1)Oc1ccc(C(C)C(=O)OCC(=O)N(C)C)cc1C2 (stereo not given),"active: 11.9 µM and inconclusive: 18.8 µM [cytotoxic, partial curve, poor fit]"
5,CCOC(=O)O[C@]1(C(=O)OCCl)CC[C@H]2[C@@H]3CCC4=CC(=O)C=C[C@]4(C)[C@H]3[C@@H](O)C[C@@]21C,"inconclusive: 1.9 nM [rising, full curve, poor fit] and inconclusive: 14.8 nM [rising, full curve, poor fit]"
6,O=C1[C@@H]2[C@H]3CC[C@H](C3)[C@@H]2C(=O)N1CCCCN1CCN(c2ncccn2)CC1,"inconclusive: 18.4 µM [cytotoxic, partial curve, poor fit]"
7,CCOC(=O)c1ccc(O)cc1,"inconclusive: 6.68 µM [cytotoxic, partial curve, poor fit]"
8,CC(=O)O[C@]1(C(C)=O)CC[C@H]2[C@@H]3C=C(Cl)C4=CC(=O)[C@@H]5C[C@@H]5[C@]4(C)[C@H]3CC[C@@]21C,"inconclusive: 11.9 µM [cytotoxic, partial curve] and inconclusive: 14.6 µM [cytotoxic, partial curve]"
9,CN(C)CC/C=C1/c2ccccc2COc2ccc(CC(=O)O)cc21,inactive
10,CCC(CN)=C(c1ccccc1)c1ccccc1,"inconclusive: 16.8 µM [cytotoxic, partial curve]"
11,CCCCCCCC/C=C/C(=O)O,"inconclusive: 13.3 µM [cytotoxic, partial curve]"
12,CC(=O)N[C@@H](CCC(=O)O)C(=O)O,inactive
13,O=c1[nH]c(=O)n([C@H]2C[C@H](O)[C@@H](CO)O2)cc1F,active: 29.9 nM and active: 83.3 nM
14,CCCNC(=O)c1cn2ncnc(Nc3cc(C(=O)NC4CC4)ccc3C)c2c1C,"inconclusive: 6.61 µM [cytotoxic, full curve]"
15,C=CC(=O)N[C@H]1CN(c2nc(Nc3cn(C)nc3OC)c3ncn(C)c3n2)C[C@@H]1F,"inconclusive: 14.8 µM [cytotoxic, partial curve]"
16,CC1(C)[C@@H]2CC[C@@]1(C)C(=O)C2,inactive
17,CCCCCCCCCCCCCC[N+](C)(C)C,"inconclusive: 0.841 µM [cytotoxic, full curve]"
18,Cc1cc(CC(=O)O)c(C)n1-c1ccc(Cl)cc1,"inconclusive: 11.9 µM [cytotoxic, partial curve]"
19,NC(=O)CC[C@@H]1NC(=O)[C@H](Cc2ccccc2)NC(=O)[C@H](Cc2ccc(O)cc2)NC(=O)CCSSC[C@@H](C(=O)N2CCC[C@H]2C(=O)N[C@@H](CCCN=C(N)N)C(=O)NCC(N)=O)NC(=O)[C@H](CC(N)=O)NC1=O,"inconclusive: 0.0015 µM [rising, full curve, poor fit]"
20,C[C@@]12C(=O)OC(=O)[C@]1(C)[C@H]1CC[C@@H]2O1,active: 2.63 µM
